Assay results from the RNAGym collection of RNA variant scans (doi:10.1093/nar/gkz1192).
The source gives no read counts; variants with many changes may rest on few reads.

B1: CPEB3 Ribozyme (parent)
chain: UAACAGGGGGCCACAGCAGAAGCGUUCACGUCGCAGCCCCUGUCAGAUUCUGGUGAAUCUGCGAAUUCUGCUGUAUAUCUC

Variants of: B1
Experiment: self-cleavage, relative activity (ratio to wild type); higher = more cleavage; in vitro, sequencing
Outline: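 After error-prone PCR and barcoding, CPEB3 ribozyme mutant libraries were transcribed with T7 RNA polymerase at 37°C for 5 hours, then given 15 min with DNase I before an EDTA stop, and they cleaved during both steps. Reverse transcription with template switching preceded Illumina sequencing. Relative activity divides a variant's cleaved/total read fraction by the unmutated ribozyme's. At least 5 reads were required per variant, and three batches were averaged.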

Variant | self-cleavage
A15U U26C U54G G61A | 0.2
A15U U25C U69A | 0.09
A15U C23U U43A U49C | 0.18
A15U U31G U41A A64U | 0.07
A15U U31G U48C A65U | 0.07
G16A A20C C29U C50U | 0.11
A15U A35G U49C A77U | 0.91
A15U A20U A64G U67G | 0.12
A15U A21G G73A U78A | 0.87
A15U A35G U76C | 1.28
A15U A20G A28G U43C U51C U72A U78C | 0.1
A15U U43C G46A U67A U72C | 0.11
A15U G42C U49A U66C | 0.04
A15U U31A U69A U72A | 0.13
A15U U31A A47G U51A U54A U66C U80A | 0.14
A15U U26C U41C A77G | 0.5
A15U A28G A35G G61A | 0.55
A15U U25A U31C U54C | 0.2
A15U A47G A56G | 0.4
A15U C40U U80C | 0.94
A15U A21G U31A A56U | 0.27
A15U U31C C32U | 0.13
A15U U25C A47G U58C U74C | 0.05
A15U U25A U60A | 0.3

Variant | self-cleavage
A15U U26C U48C U51C | 0.06
A15U G52U U54A C79G | 0.53
A15U G42U U60C | 0.16
A15U U31A U48C U72C | 0.29
A15U A20G G22U U43C U74A | 0.19
A15U U26A G42A C62G U78G | 0.06
A15U A35G A47U C68U | 0.95
A15U A20U U60C A64G U80A | 0.09
A15U U54C U72C | 0.61
A15U A28U U49C U69C A75U U78C | 0.08
A15U A65G A75G | 0.23
A15U A18U U80A | 0.29
A15U U26A A35U G53A A64U | 0.08
A15U U25C U51A U67C U69C | 0.1
A15U U25C U26C U31C U41C U72C | 0.09
A15U C40G A56U U78C | 0.03
A15U U69A U80A | 0.14
A15U A20G U67A U76C | 0.23
A15U U26C A47G U49A C81U | 0.27
A15U A28U U66C | 0.15
A15U A20G C34A A77G | 0.03
G16A A20G C40U U49C U51A U54C | 0.11
A15U U51C U74C | 1.04
A15U U25C U43G A56G U74C | 0.23

Variant | self-cleavage
A15U G24A U72A | 0.12
A15U U25A A28C U31C A64G | 0.13
A15U U25C U26C U41C | 0.21
A15U G55C U72C U78A U80C | 0.27
A15U A35U U49A U72A U78C | 0.24
A15U U41A U48A A56G U67C U78C | 0.07
A15U C39U A65G U66G U67C | 0.15
A15U C29U G30U G52A U60A | 0.11
A15U C27A A57G | 0.27
A15U A57G U80C | 1.01
A15U A47G U48C U60C | 0.23
A15U A20U A45G A56G A57U | 0.06
A15U A20G C29A A45U U74C | 0.17
A15U U41C A45G A65G U67C U69C | 0.12
A15U U25A G52C A56G G61C U69C U80C | 0.04
A15U U43C U54C | 0.17
A15U A35U C59U U69C U78C | 0.12
A15U G19U U25A A56G A57G U80C | 0.06
A15U A20G G73U | 1.11
A15U A35U U72C | 0.25
A15U G33U A45G U54G U58C U67C U76A | 0.11
A15U G33U U49C U51C C68A C81A | 0.06
A15U A45U U49A U69A | 0.09
A15U C17U A47G A75U | 0.25

Variant | self-cleavage
A15U U31A A47U U58C A64U | 0.04
A15U C32G A47G U69C | 0.05
A15U U25A A56U A64C U72A | 0.1
A15U G24A U43A A47G | 0.08
A15U A21C A56G G61A C71U U72C | 0.06
A15U U25A C50A | 0.2
A15U A35G C40U A45G U54C U60A U80A | 0.89
A15U A20U U41C U43G | 0.33
A15U U43C U76C | 0.58
A15U C40U A65U U74C | 0.11
A15U C32U U67C | 0.29
A15U A21G U25C A64G | 0.1
G16A A20G A45U A47G U48C U60A | 0.07
A15U U43C A56U C59A U80C | 0.12
A15U A28U U51C G63U U69C U72A | 0.1
A15U A20G C29G | 0.45
A15U U48C U72A | 0.51
A15U U48C A57G U69C | 0.09
A15U A28G U31C U41C | 0.16
A15U A18U U51A U76C | 0.23
A15U C59U U69C | 0.09
A15U A21G U51C | 0.31
A15U U26C A28C C71U A75G | 0.11
A15U A45U U78C | 0.17

Variant | self-cleavage
A15U U25C U43A C44U U51C U60C | 0.07
A15U U26C U48A U49C U51A A64G | 0.09
A15U U66C U72C U74C | 0.17
A15U C17G C27G C34A C39U U60C | 0.07
A15U A21G C32U A47C U49C G55C U69A | 0.07
A15U A35U U43C U48C | 0.15
A15U G30A C34U A75U | 0.06
A15U U49A U74G | 0.22
A15U U49A U74C | 0.63
A15U G16A A56G U80C | 0.86
A15U C27U C29U U41C U80C | 0.05
A15U U31A A47G U49C | 0.2
A15U A35G U41C U49C U72A | 0.6
A15U U31A C34G A35U U54C A64G U67C | 0.1
A15U U41C U43C C71U | 0.16
A15U A35U C50A | 0.19
A15U C62G U67C | 0.06
A15U C62U U67C | 0.12
A15U A35U U41A U43A | 0.21
A15U U26C U60C U67C C68G U78C | 0.06
A15U A28G U60C | 0.2
A15U U54C A56U | 0.14
A15U A45G U58C A77G | 0.1
A15U U31A U60A | 0.18

Variant | self-cleavage
A15U C29A U43C | 0.15
A15U G52U G61C U72A | 0.08
A15U A28G G53A | 0.2
A15U A65G A77U | 0.1
A15U U26C C32U U60C | 0.08
A15U U72C U74C | 1.01
A15U A35U U60A A64G | 0.11
A15U A47U C50G | 0.17
A15U U49C U72A | 0.07
A15U U49C U72C | 0.14
A15U A56C A57G U60A | 0.14
A15U U26C U51C A64G U80C | 0.22
A15U A21G U72C | 0.66
A15U U26A U43A U51C A57G U66C | 0.14
A15U U26A A28G U43A U72A | 0.04
A15U U31C G42A U60C | 0.13
A15U U31C U41A U66C | 0.08
A15U A28G A57G U60A | 0.09
A15U U26C U43C U69C A77G | 0.26
A15U A21G U25C U26A U51C U69A | 0.18
A15U U31C A35G U78A | 1.1
A15U G55U U72C | 0.83
A15U A28G U43C A45U U67C | 0.13
A15U U25C U80A | 0.07

Variant | self-cleavage
A15U U25C U80C | 0.17
A15U A47G U60C | 0.17
A15U C29U U41A U67A U80A | 0.27
A15U U31C A77G | 0.43
A15U A21G U43A U51A | 0.38
A15U C32U U67C U72A | 0.07
A15U A21G A35G U43C U54G U60C | 0.07
A15U A35U G36A U49A U51A | 0.16
A15U A47G U49A U54G | 0.16
A15U G19A A28G | 0.14
A15U C17U U41C A56G | 0.44
A15U U51A A56G U69C U78C | 0.14
A15U A35U A47U U78A | 0.07
A15U A20U U25C A28G U54A | 0.17
A15U A20U U26C C40A U41C U58C A75G | 0.04
A15U A20G G24A A28G U31C U41C | 0.05
A15U C23U U41A | 0.44
A15U U31C U43C A65G | 0.06
A15U U25C U43A U51C | 0.42
A15U U25C U41A U60C A77U U80C | 0.07
A15U U41C U78C | 0.82
A15U C40U U43C U66C U72C | 0.19
A15U A56G U67C | 0.18
